# Data reported in the supplement of paper PMC8728848.
# The other results are listed elsewhere or left out.
# Columns and labels:
# Assay in all cases: glycan array binding signal (z-score within array); higher = stronger binding
# Details in all cases: glycan notation: IUPAC condensed, linker removed
# [1] = molecular target: Man(a1-3)[Man(a1-6)]Man(a1-6)[Man(a1-2)Man(a1-3)]Man(b1-4)GlcNAc(b1-4)GlcNAc
# Outline: (§1)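 Glycan array data came from 3228 arrays in the Consortium for Functional Glycomics database, and only arrays with an available protein sequence were kept. Glycan names were put into IUPAC-condensed notation, and columns mapping to the same glycan were averaged. The binding signal is a within-array Z-score, averaged across arrays of one protein sequence run at different concentrations or buffers and across linkers. A negative Z-score can be read as non-binding.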
# [2] = molecular target: Man(a1-3)[Man(a1-6)]Man(a1-6)[Man(a1-3)]Man(b1-4)GlcNAc(b1-4)GlcNAc
# Outline: as §1
# [3] = molecular target: Man(a1-3)[Man(a1-6)]Man(b1-4)GlcNAc(b1-4)GlcNAc
# Outline: as §1
# [4] = molecular target: Man(b1-4)GlcNAc
# Outline: as §1
# [5] = molecular target: Neu5Ac(a2-3)Gal
# Outline: as §1
# [6] = molecular target: Neu5Ac(a2-3)Gal(b1-3)GalNAc
# Outline: as §1
# [7] = molecular target: Neu5Ac(a2-3)Gal(b1-3)GalNAc(b1-3)Gal(a1-4)Gal(b1-4)Glc
# Outline: as §1
# [8] = molecular target: Neu5Ac(a2-3)Gal(b1-3)GalNAc(b1-3)Gal(b1-4)GlcNAc
# Outline: as §1
# [9] = molecular target: Neu5Ac(a2-3)Gal(b1-3)GalNAc(b1-4)[Neu5Ac(a2-3)]Gal(b1-4)Glc
# Outline: as §1
# [10] = molecular target: Neu5Ac(a2-3)Gal(b1-3)GalNAc6S
# Outline: as §1
# [11] = molecular target: Neu5Ac(a2-3)Gal(b1-3)GlcNAc
# Outline: as §1
# [12] = molecular target: Neu5Ac(a2-3)Gal(b1-3)GlcNAc6S
# Outline: as §1
# [13] = molecular target: Neu5Ac(a2-3)Gal(b1-3)[Fuc(a1-4)]GlcNAc
# Outline: as §1
# [14] = molecular target: Neu5Ac(a2-3)Gal(b1-3)[Fuc(a1-4)]GlcNAc(b1-3)Gal(b1-4)[Fuc(a1-3)]GlcNAc
# Outline: as §1
# [15] = molecular target: Neu5Ac(a2-3)Gal(b1-3)[Neu5Ac(a2-3)Gal(b1-4)]GlcNAc
# Outline: as §1
# [16] = molecular target: Neu5Ac(a2-3)Gal(b1-3)[Neu5Ac(a2-6)]GalNAc
# Outline: as §1
# [17] = molecular target: Neu5Ac(a2-3)Gal(b1-4)Glc
# Outline: as §1
# [18] = molecular target: Neu5Ac(a2-3)Gal(b1-4)GlcNAc
# Outline: as §1
# [19] = molecular target: Neu5Ac(a2-3)Gal(b1-4)GlcNAc(b1-2)Man(a1-3)[Neu5Ac(a2-3)Gal(b1-4)GlcNAc(b1-2)Man(a1-6)]Man(b1-4)GlcNAc(b1-4)GlcNAc
# Outline: as §1
# [20] = molecular target: Neu5Ac(a2-3)Gal(b1-4)GlcNAc(b1-3)Gal(b1-4)GlcNAc
# Outline: as §1
# [21] = molecular target: Neu5Ac(a2-3)Gal(b1-4)GlcNAc(b1-3)Gal(b1-4)GlcNAc(b1-3)Gal(b1-4)GlcNAc
# Outline: as §1
# [22] = molecular target: Neu5Ac(a2-3)Gal(b1-4)GlcNAc(b1-3)Gal(b1-4)[Fuc(a1-3)]GlcNAc
# Outline: as §1
# [23] = molecular target: Neu5Ac(a2-3)Gal(b1-4)GlcNAc6S
# Outline: as §1
# [24] = molecular target: Neu5Ac(a2-3)Gal(b1-4)[Fuc(a1-3)]GlcNAc
# Outline: as §1
# [25] = molecular target: Neu5Ac(a2-3)Gal(b1-4)[Fuc(a1-3)]GlcNAc(b1-3)Gal
# Outline: as §1
# [26] = molecular target: Neu5Ac(a2-3)Gal(b1-4)[Fuc(a1-3)]GlcNAc(b1-3)Gal(b1-4)GlcNAc
# Outline: as §1
# [27] = molecular target: Neu5Ac(a2-3)Gal(b1-4)[Fuc(a1-3)]GlcNAc(b1-3)Gal(b1-4)[Fuc(a1-3)]GlcNAc(b1-3)Gal(b1-4)[Fuc(a1-3)]GlcNAc
# Outline: as §1
# [28] = molecular target: Neu5Ac(a2-3)Gal(b1-4)[Fuc(a1-3)]GlcNAc6S
# Outline: as §1
# [29] = molecular target: Neu5Ac(a2-3)Gal6S(b1-4)GlcNAc
# Outline: as §1
# [30] = molecular target: Neu5Ac(a2-3)Gal6S(b1-4)[Fuc(a1-3)]GlcNAc
# Outline: as §1
# [31] = molecular target: Neu5Ac(a2-3)GalNAc
# Outline: as §1
# [32] = molecular target: Neu5Ac(a2-3)GalNAc(b1-4)GlcNAc
# Outline: as §1
# [33] = molecular target: Neu5Ac(a2-3)[GalNAc(b1-4)]Gal(b1-4)Glc
# Outline: as §1
# [34] = molecular target: Neu5Ac(a2-3)[GalNAc(b1-4)]Gal(b1-4)GlcNAc
# Outline: as §1
# [35] = molecular target: Neu5Ac(a2-3)[Neu5Ac(a2-6)]GalNAc
# Outline: as §1
# [36] = molecular target: Neu5Ac(a2-6)Gal
# Outline: as §1
# [37] = molecular target: Neu5Ac(a2-6)Gal(b1-4)Glc
# Outline: as §1
# [38] = molecular target: Neu5Ac(a2-6)Gal(b1-4)GlcNAc
# Outline: as §1
# [39] = molecular target: Neu5Ac(a2-6)Gal(b1-4)GlcNAc(b1-3)Gal(b1-4)GlcNAc
# Outline: as §1
# [40] = molecular target: Neu5Ac(a2-6)Gal(b1-4)GlcNAc(b1-3)Gal(b1-4)[Fuc(a1-3)]GlcNAc(b1-3)Gal(b1-4)[Fuc(a1-3)]GlcNAc
# Outline: as §1
# [41] = molecular target: Neu5Ac(a2-6)Gal(b1-4)GlcNAc6S
# Outline: as §1
# [42] = molecular target: Neu5Ac(a2-6)GalNAc
# Outline: as §1
# [43] = molecular target: Neu5Ac(a2-6)GalNAc(b1-4)GlcNAc
# Outline: as §1
# [44] = molecular target: Neu5Ac(a2-8)Neu5Ac
# Outline: as §1
# [45] = molecular target: Neu5Ac(a2-8)Neu5Ac(a2-3)Gal(b1-4)Glc
# Outline: as §1
binder,measurement,setting,value
LKPARMA (Neurospora crassa) (protein) MSFHVTAEDARRIEVRDNRTILFARLRREDGEWNDASYELDQIIGNNDGHFQWGGGQNFTETAEDIRFHPKEGAAEQPILRARLRDCNGEFHDRDVNLTEIVENVNGEFQAKF,glycan array binding signal (z-score),[1],-0.249
same,glycan array binding signal (z-score),[2],-0.241
same,glycan array binding signal (z-score),[3],-0.247
same,glycan array binding signal (z-score),[4],-0.251
same,glycan array binding signal (z-score),[5],-0.2
same,glycan array binding signal (z-score),[6],-0.247
same,glycan array binding signal (z-score),[7],-0.24
same,glycan array binding signal (z-score),[8],-0.246
same,glycan array binding signal (z-score),[9],-0.252
same,glycan array binding signal (z-score),[10],-0.253
same,glycan array binding signal (z-score),[11],-0.251
same,glycan array binding signal (z-score),[12],-0.248
same,glycan array binding signal (z-score),[13],-0.221
same,glycan array binding signal (z-score),[14],0.305
same,glycan array binding signal (z-score),[15],-0.25
same,glycan array binding signal (z-score),[16],-0.251
same,glycan array binding signal (z-score),[17],0.489
same,glycan array binding signal (z-score),[18],-0.253
same,glycan array binding signal (z-score),[19],-0.241
same,glycan array binding signal (z-score),[20],-0.235
same,glycan array binding signal (z-score),[21],-0.244
same,glycan array binding signal (z-score),[22],-0.253
same,glycan array binding signal (z-score),[23],-0.254
same,glycan array binding signal (z-score),[24],-0.251
same,glycan array binding signal (z-score),[25],-0.247
same,glycan array binding signal (z-score),[26],-0.14
same,glycan array binding signal (z-score),[27],-0.212
same,glycan array binding signal (z-score),[28],-0.25
same,glycan array binding signal (z-score),[29],-0.245
same,glycan array binding signal (z-score),[30],-0.252
same,glycan array binding signal (z-score),[31],-0.246
same,glycan array binding signal (z-score),[32],-0.248
same,glycan array binding signal (z-score),[33],-0.252
same,glycan array binding signal (z-score),[34],-0.251
same,glycan array binding signal (z-score),[35],-0.247
same,glycan array binding signal (z-score),[36],0.009
same,glycan array binding signal (z-score),[37],-0.199
same,glycan array binding signal (z-score),[38],-0.249
same,glycan array binding signal (z-score),[39],-0.23
same,glycan array binding signal (z-score),[40],-0.19
same,glycan array binding signal (z-score),[41],-0.25
same,glycan array binding signal (z-score),[42],-0.25
same,glycan array binding signal (z-score),[43],-0.252
same,glycan array binding signal (z-score),[44],-0.253
same,glycan array binding signal (z-score),[45],-0.247
